# Data reported in the BET-seq Pho4 binding data (Le et al. 2018).
# Some of the results follow. These are noisy estimates, calculated here from bound and input reads.
# Molecular target: T1, Pho4 (S. cerevisiae) (UniProt P07270)
# T1 sequence: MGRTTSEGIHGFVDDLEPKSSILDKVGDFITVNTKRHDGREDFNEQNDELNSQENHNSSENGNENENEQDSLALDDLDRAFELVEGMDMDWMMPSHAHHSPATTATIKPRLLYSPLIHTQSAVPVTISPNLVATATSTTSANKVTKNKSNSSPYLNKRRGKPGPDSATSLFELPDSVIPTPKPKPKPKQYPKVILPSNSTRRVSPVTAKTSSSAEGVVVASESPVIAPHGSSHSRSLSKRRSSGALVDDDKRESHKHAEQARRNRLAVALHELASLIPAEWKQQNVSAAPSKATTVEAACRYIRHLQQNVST
# Experiment: relative binding free energy (BET-seq); higher = weaker binding
# Settings: reference: library average
row,Sequence,relative binding free energy [kcal/mol]
1,GCCCGCACGTGGGGGT,-0.13
2,TTTGGCACGTGACTTA,-0.02
3,TTATTCACGTGGTGGA,0.23
4,AGTATCACGTGGGTTA,-0.05
5,GGGTGCACGTGGAATA,0.08
6,ATGTTCACGTGGTTTG,0.28
7,TTAGCCACGTGTGTTT,-0.06
8,TATGCCACGTGGTGTT,-0.28
9,TATCGCACGTGTATAT,0.03
10,GCCAGCACGTGTGTGT,0.07
11,ACTTTCACGTGTAAGT,0.2
12,TGGTTCACGTGAGTAG,0.41
13,GTATCCACGTGGTGAG,0.06
14,TGCAGCACGTGGAGTG,-0.01
15,TACGGCACGTGCAGTG,0.03
16,TTTAACACGTGGAATT,0.25
17,AATGTCACGTGCGTGA,-0.06
18,AATGACACGTGGATAG,0.11
19,TTCGACACGTGTGGGG,0.21
20,GGCAGCACGTGTTGTG,-0.03
21,AAGGGCACGTGAATAA,0.15
22,AATGACACGTGATGGT,-0.03
23,CGTGTCACGTGTCTTG,0.07
24,GGGTTCACGTGTTTAA,0.17
25,TCGGTCACGTGAGGGT,0.22
26,AAGGACACGTGGCATG,0.01

row,Sequence,relative binding free energy [kcal/mol]
1,GCGTTCACGTGGGGTC,0.18
2,TTGGGCACGTGTTAAG,0.03
3,TTGTGCACGTGGGTCC,-0.21
4,ATTTGCACGTGAGCGT,0.14
5,TCGCTCACGTGGGTGT,-0.14
6,GGTTGCACGTGGTGTT,-0.01
7,TTCGGCACGTGATGAG,-0.07
8,GTTGGCACGTGCTTCG,-0.11
9,TAGCGCACGTGGGTGG,-0.28
10,GCCGTCACGTGGGGGA,-0.09
11,GTGTTCACGTGACGCG,0.39
12,TGGATCACGTGTCGGA,0.22
13,TCTTGCACGTGTGGTG,0.05
14,GGGCGCACGTGGGTAT,-0.4
15,GCTGGCACGTGAGCGT,0.11
16,TAGGGCACGTGATACA,-0.01
17,AGATGCACGTGTTTGA,-0.07
18,ACACGCACGTGTGGGG,-0.19
19,TGGTGCACGTGCAATG,-0.01
20,CGTGGCACGTGAGAAT,0.03
21,TTGTTCACGTGGCTCG,0.24
22,TAAGTCACGTGAGAGG,0.18
23,TTACTCACGTGTCTGG,0.18
24,GATGACACGTGGGATG,-0.12
25,TAAAACACGTGTTAGG,0.05
26,TTGGACACGTGATTAT,0.16

row,Sequence,relative binding free energy [kcal/mol]
1,CTAGGCACGTGGTTAG,-0.24
2,AGATTCACGTGAGTTA,0.37
3,AATGTCACGTGGCATG,0.03
4,CGAGGCACGTGGGCAT,-0.17
5,ATGTCCACGTGGTTGC,0.1
6,ATTATCACGTGTCTTT,0.15
7,TAAAGCACGTGGAGGA,-0.02
8,TGGGTCACGTGAAATG,0.16
9,TATATCACGTGTTACG,0.14
10,CGTTGCACGTGCGGGT,-0.13
11,TGGTTCACGTGGGAGC,0.23
12,TTGGTCACGTGCTTGC,0.09
13,AGATACACGTGGGTGG,-0.09
14,TTGCACACGTGAGGGG,0.31
15,CCGGTCACGTGGTGGA,-0.04
16,TTAGGCACGTGGGCAA,-0.29
17,GTAGCCACGTGGGTGA,-0.25
18,AGGAACACGTGAGGGG,0.24
19,CGAGTCACGTGTGGAG,0.08
20,TGTGTCACGTGAGGTC,0.36
21,GCGGTCACGTGTAAGG,0.23
22,TTTTACACGTGGAATG,0.21
23,TTTGTCACGTGATAGA,0.21
24,AGTGACACGTGGGAGA,-0.08
25,AGTTGCACGTGCGTTA,-0.1
26,TAGGTCACGTGCACGG,0

row,Sequence,relative binding free energy [kcal/mol]
1,AGTAACACGTGTGTGC,-0.06
2,TTTCGCACGTGAGGGG,0.17
3,GGAGGCACGTGAGGTC,0.24
4,TCGGGCACGTGGGATT,-0.05
5,ATAGGCACGTGGAAGT,-0.13
6,GCGTGCACGTGAAGGT,0.19
7,GTACACACGTGGGAGG,-0.06
8,TCGTGCACGTGAGGCG,0.04
9,GTCATCACGTGGGAGT,0.02
10,TCTTGCACGTGTAGGG,0.02
11,GCGTCCACGTGGGGGA,-0.08
12,TTCGTCACGTGTAGGT,0.08
13,GGCGTCACGTGTTTTC,0.22
14,GTTAACACGTGTGCGA,0.05
15,TGTGTCACGTGCACGG,-0.09
16,GTGATCACGTGTGATG,0.14
17,GTTTGCACGTGCTGGC,-0.04
18,CTTTTCACGTGTTTAC,0.22
19,GTAGGCACGTGGGGCT,-0.34
20,GTTGGCACGTGCATTG,0.02
21,TATGCCACGTGGGATT,-0.19
22,ATGGGCACGTGACAGT,-0.02
23,AATTCCACGTGTAGGG,0.16
24,ACGTTCACGTGGAGTT,0.17
25,TCTTTCACGTGCGTGG,0.36
26,TGTAACACGTGGAGGC,-0.03

row,Sequence,relative binding free energy [kcal/mol]
1,TGTAGCACGTGATTCG,0.07
2,GTAGCCACGTGTTTTG,-0.06
3,GGGGCCACGTGGAGTG,0.02
4,ATATTCACGTGTTGGT,0.25
5,TGCGGCACGTGCGGTT,-0.13
6,ATCTTCACGTGTTAAT,0.32
7,TAATTCACGTGGGTTG,0.17
8,ATTATCACGTGCTGTA,0.07
9,AGTTCCACGTGTATTT,0.06
10,GTTAACACGTGTTGGA,0.16
11,ATGTTCACGTGATAAT,0.13
12,CACGGCACGTGGTGTG,-0.06
13,AGGCTCACGTGTGATT,0.31
14,GGGTCCACGTGGGCAT,-0.03
15,CTTGTCACGTGAGTTA,0.4
16,ACGGTCACGTGTTGAA,0.1
17,TGGCTCACGTGGCAGG,0.02
18,GTTGACACGTGTTTCT,0.14
19,TGGCGCACGTGGTGGT,-0.08
20,TTTTACACGTGGACGT,0.09
21,TTCGTCACGTGGTCAT,0.04
22,ACTGTCACGTGGAGGG,0.01
23,GCTTTCACGTGAGGGA,0.4
24,TACGGCACGTGCGGGG,-0.07
25,TTAGACACGTGGGGCA,-0.13
26,CTTTGCACGTGAGGGT,0.27

row,Sequence,relative binding free energy [kcal/mol]
1,TTCTCCACGTGTTGGG,0.09
2,GGTATCACGTGTGCGC,0.18
3,GGCGGCACGTGTGATT,0.1
4,CTGGGCACGTGCGTTA,-0.11
5,ATTTACACGTGTTGTG,0.13
6,GAACGCACGTGTGGAG,0.09
7,TGCATCACGTGGGTGT,-0.14
8,TATGTCACGTGTAAGG,0.18
9,GGGGCCACGTGAAAGG,0.14
10,TAATGCACGTGTAGAT,0.21
11,TTGGCCACGTGAGGCG,0.22
12,TGAGTCACGTGTCCGT,0.2
13,CTATTCACGTGATGTT,0.22
14,ATGTTCACGTGTAGCG,0.23
15,CGGGACACGTGTATGT,0.05
16,GCTTGCACGTGTTGAG,0.03
17,TTCGTCACGTGTGTCT,0.04
18,GGTTACACGTGAGTGC,0.41
19,TCGTGCACGTGTGATG,0
20,GTGGTCACGTGATGTG,0.27
21,TTGGGCACGTGTATAA,-0.14
22,GTACTCACGTGGTGTG,0.07
23,ATAGCCACGTGGTAGG,-0.22
24,TGTGACACGTGTATTG,0.02
25,AGTAGCACGTGAGTCG,0.16
26,TTAAGCACGTGGGTAG,-0.32

row,Sequence,relative binding free energy [kcal/mol]
1,TCGGTCACGTGTTCAG,0.37
2,GGTGTCACGTGGGTAT,0.08
3,TGAAGCACGTGGTTGA,-0.09
4,CTTGTCACGTGTGGCT,0.04
5,ATGGGCACGTGGGGCT,-0.22
6,CTTTACACGTGTAGTA,0.08
7,GTTAACACGTGGGTAG,-0.07
8,TTGGGCACGTGTACTC,0.07
9,ATGGGCACGTGTTCTA,-0.22
10,GATTGCACGTGTGTTA,0.11
11,TGAGTCACGTGGACAG,0.17
12,TACAGCACGTGGTGTA,-0.12
13,GTTCGCACGTGTGCGG,-0.06
14,TGAGGCACGTGTCGCG,-0.03
15,ATTTACACGTGTCATG,0.07
16,GAAGACACGTGGGGGC,-0.05
17,AGCATCACGTGTTGTT,0.04
18,GTAGGCACGTGGAAGC,-0.05
19,TGCTTCACGTGGTCTT,0.29
20,TTTGACACGTGAATCG,0.3
21,GGGCGCACGTGCTGTT,-0.18
22,GAATTCACGTGTTGAG,0.51
23,ATTGTCACGTGGTCGT,-0.09
24,TGGTGCACGTGAGGAC,0.19
25,AGAAACACGTGGTGGA,0.04
26,ATATTCACGTGAGTAA,0.42

row,Sequence,relative binding free energy [kcal/mol]
1,GGGTTCACGTGCATTT,0.44
2,ATAAGCACGTGGGCTA,-0.2
3,TAGAACACGTGGGGAT,-0.03
4,AGATGCACGTGCGAGT,-0.07
5,TTGTGCACGTGGGATA,-0.1
6,TGGTGCACGTGGGCAA,-0.07
7,CATAGCACGTGAAGGG,0.25
8,TAAGGCACGTGCGGGT,-0.26
9,GTTATCACGTGCAGGG,0.05
10,TAGTACACGTGGGATT,0.03
11,CAGTTCACGTGGGGAT,0.16
12,ACGTGCACGTGAGGGA,0.1
13,GTGCGCACGTGGGGAG,-0.12
14,GAGGCCACGTGCGGTT,0.02
15,TGATTCACGTGATTGC,0.35
16,CGTCGCACGTGTGGTA,-0.09
17,TTGGACACGTGAAGAA,0.33
18,AATGTCACGTGTGTAC,0.32
19,TCTAGCACGTGTTGGG,-0.02
20,GTTGGCACGTGCATAG,-0.25
21,ATCTGCACGTGTAAGG,0.1
22,AATTGCACGTGTTACT,0.01
23,GGTTGCACGTGGATGG,0.04
24,GATGTCACGTGGAGAT,0
25,AAAGTCACGTGGTCTT,0.04
26,GAAAGCACGTGGGTTG,-0.15

row,Sequence,relative binding free energy [kcal/mol]
1,CTGGGCACGTGTCGAG,-0.03
2,GTGTGCACGTGGTGTA,0.02
3,TTAGTCACGTGCAAGG,0.11
4,CGGTCCACGTGCGGGG,-0.2
5,ATAGGCACGTGGTTGA,-0.22
6,TGGTTCACGTGCGAGT,0.25
7,TAGCACACGTGTAGGT,0.27
8,ATCTGCACGTGATAGG,0.12
9,GTGGTCACGTGTAGCG,0.24
10,GTGTTCACGTGATGCA,0.32
11,TGTTGCACGTGCGGTA,0.04
12,TTTTACACGTGGTACT,0.18
13,AGGTCCACGTGTTTAA,0.15
14,GGAGGCACGTGGTGTC,-0.22
15,GGACGCACGTGCATGG,0.05
16,GTAAGCACGTGAATGT,0.29
17,CGGCGCACGTGGGTGC,-0.33
18,TGTAACACGTGGTCAT,-0.05
19,TGTAACACGTGTAACG,0.18
20,ATGTACACGTGGAGCT,0.06
21,AGGGTCACGTGGATTG,0.15
22,GTACGCACGTGGATGG,-0.1
